The values that follow come from publication PMC8166750 (The Journal of Biological Chemistry, 2021).

Residue numbers refer to the chain shown, from its start.

In one assay the target is T1, hP2X3^WT (Homo sapiens, UniProt P56373).
T1 sequence (P56373 1-397): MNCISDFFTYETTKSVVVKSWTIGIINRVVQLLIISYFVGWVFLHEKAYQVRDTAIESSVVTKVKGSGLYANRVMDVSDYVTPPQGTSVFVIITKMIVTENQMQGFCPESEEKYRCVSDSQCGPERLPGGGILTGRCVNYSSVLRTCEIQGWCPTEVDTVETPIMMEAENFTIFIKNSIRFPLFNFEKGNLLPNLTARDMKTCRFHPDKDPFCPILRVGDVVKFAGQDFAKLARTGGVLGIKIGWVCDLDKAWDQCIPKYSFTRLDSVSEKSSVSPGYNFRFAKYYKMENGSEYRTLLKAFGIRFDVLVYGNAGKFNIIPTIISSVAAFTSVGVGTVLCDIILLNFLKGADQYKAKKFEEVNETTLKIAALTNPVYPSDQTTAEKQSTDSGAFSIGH
Kind of assay: ATP concentration-response, perforated patch clamp in HEK293 cells. Format: cell-based. For orientation: In patch-clamp work, channel activity is measured electrically.

The next assay deals with T2, hP2X3^E109A (Homo sapiens, UniProt P56373, E109A).
T2 sequence (P56373 1-397 E109A): T1 sequence (P56373 1-397) with E109A
The assay is described as above. It counts as cell-based.

For the next assay, the target named is T3, hP2X7^WT (Homo sapiens, UniProt Q99572).
T3 sequence (Q99572 1-595): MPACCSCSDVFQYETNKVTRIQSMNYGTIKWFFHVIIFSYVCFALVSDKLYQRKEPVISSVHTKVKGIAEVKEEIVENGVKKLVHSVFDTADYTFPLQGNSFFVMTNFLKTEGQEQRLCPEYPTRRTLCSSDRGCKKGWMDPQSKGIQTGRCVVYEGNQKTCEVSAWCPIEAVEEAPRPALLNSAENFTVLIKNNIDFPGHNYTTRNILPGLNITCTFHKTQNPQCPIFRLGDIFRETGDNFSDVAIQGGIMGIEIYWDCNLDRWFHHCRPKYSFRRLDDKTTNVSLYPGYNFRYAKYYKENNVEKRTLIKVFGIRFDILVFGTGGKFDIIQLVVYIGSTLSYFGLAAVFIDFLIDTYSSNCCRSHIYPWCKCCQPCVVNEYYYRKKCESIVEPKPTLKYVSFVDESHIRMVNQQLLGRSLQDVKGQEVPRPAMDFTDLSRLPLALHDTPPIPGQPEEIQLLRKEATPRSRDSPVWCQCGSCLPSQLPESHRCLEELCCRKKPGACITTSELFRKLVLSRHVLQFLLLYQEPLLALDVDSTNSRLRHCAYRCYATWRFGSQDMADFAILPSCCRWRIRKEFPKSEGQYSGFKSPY
The description is as above. It counts as cell-based.

The next assay addresses T4, hP2X2^E127A (Homo sapiens, UniProt Q9UBL9, E127A).
T4 sequence (Q9UBL9 1-471 E127A): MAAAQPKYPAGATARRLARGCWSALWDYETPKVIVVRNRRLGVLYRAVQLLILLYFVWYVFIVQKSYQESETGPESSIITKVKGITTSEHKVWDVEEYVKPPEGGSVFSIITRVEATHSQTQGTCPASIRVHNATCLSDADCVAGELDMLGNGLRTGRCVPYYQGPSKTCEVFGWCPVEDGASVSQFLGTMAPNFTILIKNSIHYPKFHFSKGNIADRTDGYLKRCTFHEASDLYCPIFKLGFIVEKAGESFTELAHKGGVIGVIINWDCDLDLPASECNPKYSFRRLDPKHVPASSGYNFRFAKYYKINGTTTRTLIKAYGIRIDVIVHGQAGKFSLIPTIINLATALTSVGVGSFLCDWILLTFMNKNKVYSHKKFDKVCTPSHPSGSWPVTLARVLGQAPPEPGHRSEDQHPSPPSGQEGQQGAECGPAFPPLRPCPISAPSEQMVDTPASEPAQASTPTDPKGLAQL
Described as above. It counts as cell-based.

Another assay addresses T5, AmP2X^E129A (Amblyomma maculatum, UniProt G3MM57, E129A).
T5 sequence (G3MM57 1-383 E129A): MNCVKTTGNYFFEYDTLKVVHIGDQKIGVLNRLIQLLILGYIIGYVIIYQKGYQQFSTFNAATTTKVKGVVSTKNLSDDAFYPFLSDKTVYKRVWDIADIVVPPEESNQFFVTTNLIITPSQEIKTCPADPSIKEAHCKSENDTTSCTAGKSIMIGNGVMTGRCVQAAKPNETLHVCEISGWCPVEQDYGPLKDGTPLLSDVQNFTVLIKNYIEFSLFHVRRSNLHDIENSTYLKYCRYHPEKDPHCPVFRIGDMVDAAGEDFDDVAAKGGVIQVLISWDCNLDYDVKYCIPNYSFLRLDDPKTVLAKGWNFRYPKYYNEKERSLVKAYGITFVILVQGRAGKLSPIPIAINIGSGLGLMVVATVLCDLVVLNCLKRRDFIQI

The next assay concerns the target T6, zfP2X4^E121A (Danio rerio, UniProt F8W463, E121A).
T6 sequence (F8W463 1-389 E121A): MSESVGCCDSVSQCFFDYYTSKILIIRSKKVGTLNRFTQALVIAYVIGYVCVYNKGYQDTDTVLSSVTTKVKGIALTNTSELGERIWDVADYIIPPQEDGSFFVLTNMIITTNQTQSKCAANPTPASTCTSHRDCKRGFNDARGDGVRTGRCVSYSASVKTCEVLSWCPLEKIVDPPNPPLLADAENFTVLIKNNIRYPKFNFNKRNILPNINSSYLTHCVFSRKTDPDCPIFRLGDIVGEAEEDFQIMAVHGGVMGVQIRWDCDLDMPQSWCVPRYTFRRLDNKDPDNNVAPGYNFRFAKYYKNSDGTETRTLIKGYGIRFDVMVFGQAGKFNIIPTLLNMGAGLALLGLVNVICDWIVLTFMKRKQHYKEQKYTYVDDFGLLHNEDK
Kind of assay: cell-based.

The EC50 is the midpoint of the concentration-response curve. A high value points to weaker potency. In the case of `Nc1ncnc2c1ncn2[C@@H]1O[C@H](COP(=O)(O)OP(=O)(O)OP(=O)(O)O)[C@@H](O)[C@H]1O` [ATP], the EC50 turned out to be 0.45 ± 0.07 µM on hP2X3^WT, 0.58 ± 0.07 µM on hP2X3^E109A, 497 ± 44.2 µM on hP2X7^WT and 89.6 ± 18.1 µM at zfP2X4^E121A. Besides, the “nH (Hill coefficient) of ATP” value on hP2X3^E109A (hP2X3^E109A) is given as 1.02 ± 0.18; on hP2X7^WT (hP2X7^WT) it was 1.71 ± 0.19; at hP2X2^E127A, 1.26 ± 0.15; at AmP2X^E129A, 0.99 ± 0.09.
